From PubChem BioAssay AID624417 (National Center for Advancing Translational Sciences (NCATS), 2012)
The whole screen tested about 410,000 compounds, of which about 6,400 (1.6%) were called active. The shares of active, inactive and inconclusive entries below differ from those in the screen. The call rests on the fitted dose curve; in most records, active means well fitted inhibition curve with a large enough effect; inconclusive means small, poorly fitted or top-dose-only effect; inactive means no such curve, though single readings can be large or run the other way. Potencies of inconclusive entries are doubtful fits and often do not repeat.

target: Glucagon-like peptide 1 receptor (Homo sapiens) (UniProt P43220); assay: qHTS of GLP-1 Receptor Inverse Agonists (Inhibition Mode); conditions: HEK293 GLP-1R CRE-luciferase, luminescence, 24 h, GLP-1R form is constitutively active; activity change, negative = inhibition: at 38.3 µM (top of the series) unless noted; further: nearly all actives have a fitted effect of over 55% in size
Summary of the method: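 Stable HEK293 clone (constitutively active GLP-1R + cAMP-response luciferase); 200 cells/uL plated, 12 h pre-culture, compound 24 hr, 37 deg C/5% CO2; detection reagent 12 min RT; luminescence.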
On the % scale 0 is the no-effect control and ±100 the full control effect; potency means the concentration at half of the fitted maximal effect; tags describe the fitted curve by direction and shape.

UniProt P43220, sequence (P43220 whole entry, looked up): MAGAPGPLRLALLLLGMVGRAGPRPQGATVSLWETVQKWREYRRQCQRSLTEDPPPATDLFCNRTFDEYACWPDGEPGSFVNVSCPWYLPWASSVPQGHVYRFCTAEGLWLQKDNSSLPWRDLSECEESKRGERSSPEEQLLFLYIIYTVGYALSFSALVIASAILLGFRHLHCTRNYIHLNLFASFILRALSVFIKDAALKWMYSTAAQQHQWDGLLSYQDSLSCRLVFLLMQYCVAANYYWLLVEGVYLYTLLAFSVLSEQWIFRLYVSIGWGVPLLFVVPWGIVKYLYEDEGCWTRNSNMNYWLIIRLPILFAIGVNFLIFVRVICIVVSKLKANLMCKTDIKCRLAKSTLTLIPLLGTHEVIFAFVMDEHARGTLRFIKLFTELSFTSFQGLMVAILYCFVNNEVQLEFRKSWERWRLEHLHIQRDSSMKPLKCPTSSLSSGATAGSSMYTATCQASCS

Potency, active:
CC(=Nc1ccc(C)cc1)c1sc2ccccc2c1O 12.6 µM, Cc1[nH]nc2ncc(C(=O)c3ccccc3O)cc12 10 µM

Potency, inconclusive:
CC(C)(C)c1ccc(C(=O)NCCOc2ccccc2)cc1 10 µM [inhibitor, partial curve], CSc1nc2ccc(NC(=O)c3cc4ccccc4o3)cc2s1 28.2 µM [inhibitor, single point], Cc1occc1C(=O)N1CCCC(N2CCN(c3cccc(Cl)c3)CC2)C1 (stereo not drawn) 31.6 µM [inhibitor, single point], Cc1ccc(C(CNS(=O)(=O)c2cc(F)ccc2F)N2CCN(C)CC2)cc1 (stereo not drawn) 8.91 µM [inhibitor, partial curve, poor fit], CC(C)(C)NC(=O)CN(C(=O)CSc1nnc(COc2ccccc2)o1)c1cccc(F)c1 12.6 µM [inhibitor, partial curve], COc1cccc(Cn2c(=O)n(CC3CCC(C(=O)N4CCCCC4)CC3)c(=O)c3sccc32)c1 (stereo not drawn) 11.2 µM [inhibitor, single point], COc1cccc(CNC(=O)Cn2nc([N+](=O)[O-])c(Br)c2C)c1 28.2 µM [inhibitor, single point], COc1ccccc1N1CCN(C(=O)C2CCN(S(=O)(=O)c3c(C)noc3/C=C/c3ccc(C)cc3)CC2)CC1 15.8 µM [inhibitor, single point], CCN(CC)C(=S)SCC(=O)Nc1nc(-c2ccccc2)c(-c2ccccc2)o1 28.2 µM [inhibitor, single point], COc1cc(OC)cc(C2=NC3(CCC(C)CC3)NC2=S)c1 (stereo not drawn) 15.8 µM [inhibitor, partial curve, poor fit], Cc1nn(S(=O)(=O)c2cccs2)c(C)c1Sc1ccc([N+](=O)[O-])cc1 11.2 µM [inhibitor, partial curve, poor fit], CN(c1ccc(C(=O)N/N=C/c2cccc([N+](=O)[O-])c2)cc1)S(=O)(=O)c1ccccc1 35.5 µM [inhibitor, partial curve, poor fit], Cc1ccc(C)c(N2CCN(C(=O)Nc3cn(CC(C)C)c(=O)c4ccccc34)CC2)c1 8.91 µM [inhibitor, partial curve, poor fit], CN(C)CCCN(C(=O)c1ccco1)c1nc2c(F)cccc2s1 0.794 µM [inhibitor, partial curve, poor fit], CCN(CC)CCn1c(NCc2ccc(OC)cc2)nc2ccccc21 12.6 µM [inhibitor, partial curve, poor fit], CC1(c2cccc(Br)c2)NC(=O)N(CC(=O)Nc2ccc(N3CCCCC3)cc2)C1=O (stereo not drawn) 11.2 µM [inhibitor, partial curve, poor fit], Cc1ccc(C(=O)CC(=O)COc2ccc(Cl)cc2)cc1 12.6 µM [inhibitor, single point], COc1ccc(NC(=O)c2ccc(F)cc2)cc1S(=O)(=O)Nc1cc(C)ccc1Br 3.98 µM [inhibitor, partial curve], C=CCNC(=S)N/N=C(\C)c1cc(OC)c(OC)c(OC)c1 10 µM [inhibitor, partial curve, poor fit], O=C1C=C(c2ccccc2C(F)(F)F)C[C@@H](c2ccc3c(c2)OCO3)C1 10 µM [inhibitor, partial curve, poor fit], COc1cc(C(=O)NCCCN(C)C)ccc1OCC(=O)Nc1cccc(C(F)(F)F)c1 28.2 µM [inhibitor, single point], Fc1ccc(-[n+]2nc(Nc3ccccc3)sc2-c2c(Cl)cccc2Cl)cc1 10 µM [inhibitor, partial curve, poor fit], CCN(CC)S(=O)(=O)c1cccc(-c2nnc(SC(C)C(=O)NCCC3=CCCCC3)o2)c1 (stereo not drawn) 10 µM [inhibitor, single point], Cc1ccc(S(=O)(=O)N(C)C[C@H]2Oc3cc(C#CC4CCCC4)ccc3S(=O)(=O)N([C@H](C)CO)C[C@H]2C)cc1 20 µM [inhibitor, single point], CC(Cc1ccccc1)NC(=O)/C=C/c1ccc([N+](=O)[O-])cc1 (stereo not drawn) 28.2 µM [inhibitor, single point], CNc1oc(-c2ccc(C)cc2)nc1P(=O)(c1ccccc1)c1ccccc1 22.4 µM [inhibitor, partial curve, poor fit], CCc1nnc(NC(=O)c2ccc(S(=O)(=O)N(CC)Cc3ccccc3)cc2)o1 3.55 µM [inhibitor, partial curve, poor fit], C=C(C)C(=O)Nc1ccc2nn(-c3ccccc3O)nc2c1 7.94 µM [inhibitor, partial curve], CCN(CC)CCN(C(=O)c1ccc(C(=O)c2ccccc2)cc1)c1nc2cc3c(cc2s1)OCO3 28.2 µM [inhibitor, single point], CC(C)(C)C(=O)NC(=S)NNC(=O)c1sc2ccccc2c1Cl 10 µM [inhibitor, partial curve, poor fit], O=C(NN=Cc1cccc2ccccc12)C1CC1 17.8 µM [inhibitor, single point], O=C(Nc1cccc2c1CCCC2)c1ccccc1F 22.4 µM [inhibitor, single point], CCN1/C(=C/c2cc[n+](C)cc2)C=Cc2cc(C)ccc21 1.12 µM [inhibitor, full curve, poor fit], Cc1ccc(C(=O)N/N=C/c2cc(C)n(-c3ccc(Br)cc3)c2C)cc1[N+](=O)[O-] 8.91 µM [inhibitor, partial curve, poor fit], O=C(Nc1nc2ccc(Cl)cc2s1)[C@@H]1CCCN1C(=O)c1cccs1 10 µM [inhibitor, partial curve, poor fit], COc1ccc(Br)cc1/C=N/n1nnnc1N 11.2 µM [inhibitor, single point], CCc1ccc(Nc2nnc(SCC(=O)N(C)CC(=O)Nc3ccccc3CC)s2)cc1 11.2 µM [inhibitor, single point], CCc1ccc(OCC(=O)N2CCN(c3ccccc3F)CC2)cc1 12.6 µM [inhibitor, single point], O=C(Nc1ccncc1)c1cc(S(=O)(=O)N2CCN(c3ccccc3)CC2)ccc1Cl 28.2 µM [inhibitor, single point], O=C(Nc1ccc(Cl)c(Cl)c1)C1C2C=CC3(O2)C1C(=O)N(CCN1CCCCC1)C3C(=O)NC1CCCCC1 (stereo not drawn) 7.08 µM [inhibitor, partial curve, poor fit], CCOc1ccc(NC(=O)CN2CCN(S(=O)(=O)c3ccc(Cl)cc3)CC2)cc1 5.62 µM [inhibitor, partial curve, poor fit], C=CCn1c(SCC(=O)NCc2ccccc2)nnc1C1CCCCC1 3.55 µM [inhibitor, full curve], Cc1ccc(NS(=O)(=O)c2csc(C(N)=O)c2)c(C)c1 28.2 µM [inhibitor, single point], CCC1CCCCN1C(=O)COC(=O)c1cc2ccccc2cc1O (stereo not drawn) 20 µM [inhibitor, single point], CCOC(=O)CSc1c(-c2cccs2)[nH]c2ccccc12 10 µM [inhibitor, partial curve, poor fit], c1nc(N2CCC3(CC2)OCCO3)c2c3c(sc2n1)CCCC3 11.2 µM [inhibitor, partial curve, poor fit], CCN1C(=O)[C@H]2[C@@H](c3ccc(C)cc3)N3C(=O)N(c4ccc(C)cc4)C(=O)[C@@]3(Cc3ccccc3)[C@H]2C1=O 28.2 µM [inhibitor, single point]

Activity change, negative = inhibition, inactive:
CCOC(=O)C1CCCN(C(=O)Cc2c(C(=O)O)[nH]c3ccccc23)C1 (stereo not drawn) -34%, CCN(CC)CCN(C(=O)CCS(=O)(=O)c1ccccc1)c1nc2cc(OC)c(OC)cc2s1 -29.8%, Cc1csc2c(=O)sc(NC(=O)c3ccc(F)cc3)nc12 15.3%, CCOc1cc(NC(=O)c2ccccn2)c(OCC)cc1NC(=O)c1ccc(C)cc1 10.9%, COc1ccc(C(=O)C[n+]2ccc3c(c2)nc(-c2ccccc2)n3C)cc1 -14.6%, O=C(Oc1ccccc1)c1cc(O)c(O)c(O)c1 14.1%, Clc1ccc(Cn2ncc3c(N4CCCC4)ncnc32)cc1 31.6%, COc1ccc(-c2cc(=O)oc3c(C)c(OC(C)C(C)=O)ccc23)cc1 (stereo not drawn) -28.5%, O=C(NCc1ccccc1)C1c2ccccc2OCC(=O)N1Cc1cccnc1 (stereo not drawn) 18.7%, O=C(CSc1nc(-c2cccc(Cl)c2)nc2cc(=O)[nH]n12)Nc1ccccc1 -0.473%, Cc1ccc(C)c(NC(=O)CN2C(=O)c3cccc4cccc2c34)c1 -13.7%, Cc1cc(CN(C)C(=O)CCc2nnc(Cc3cccc(C(F)(F)F)c3)o2)on1 75.8%, O=C(COC(=O)Cc1ccc(Br)cc1)NCC1CCCO1 (stereo not drawn) 3.26%, O=C(Oc1ccc(Cl)c2cccnc12)N1CCOCC1 9.07%
